Source: paper PMC6919601, “Identification of Plasmodium dipeptidyl aminopeptidase allosteric inhibitors by high throughput screening” (PLoS ONE, 2019)
The whole screen tested about 110,000 compounds, of which about 230 (0.21%) showed an effect of 50% or more. Some of the results follow.

Target: DPAP1 (Plasmodium falciparum, UniProt Q8IIJ9)
Experiment: primary screen, percent inhibition; read by cleavage of a fluorogenic dipeptide substrate; higher = more effect of the substance
Parameters: species or system P. falciparum D10 trophozoite lysates; single well
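Further: 30 min substrate incubation versus DMSO and 10 µM JCP410 controls.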

Chain of DPAP1 (Q8IIJ9 whole entry, looked up): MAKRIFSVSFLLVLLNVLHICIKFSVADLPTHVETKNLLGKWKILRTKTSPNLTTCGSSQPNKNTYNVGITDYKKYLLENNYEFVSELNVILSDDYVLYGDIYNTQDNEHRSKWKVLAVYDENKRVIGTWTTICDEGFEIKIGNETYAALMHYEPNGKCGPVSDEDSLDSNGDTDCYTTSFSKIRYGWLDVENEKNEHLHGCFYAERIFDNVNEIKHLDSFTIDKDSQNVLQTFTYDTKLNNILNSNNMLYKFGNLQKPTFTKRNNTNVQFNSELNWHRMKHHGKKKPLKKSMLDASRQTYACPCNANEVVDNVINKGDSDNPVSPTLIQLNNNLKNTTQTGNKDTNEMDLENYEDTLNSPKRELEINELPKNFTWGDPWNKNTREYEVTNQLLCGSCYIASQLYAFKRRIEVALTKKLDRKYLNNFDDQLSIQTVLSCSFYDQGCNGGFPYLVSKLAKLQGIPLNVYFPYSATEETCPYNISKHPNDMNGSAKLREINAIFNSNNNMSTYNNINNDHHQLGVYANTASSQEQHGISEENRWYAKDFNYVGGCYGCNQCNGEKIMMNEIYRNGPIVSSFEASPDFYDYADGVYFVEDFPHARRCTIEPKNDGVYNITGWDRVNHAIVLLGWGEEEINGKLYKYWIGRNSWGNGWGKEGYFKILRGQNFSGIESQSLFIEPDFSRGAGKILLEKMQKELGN

Row | SMILES | % Inhibition @ 10 uM [%]
1 | COc1ccc(C(=O)Nc2ccc(Cl)cc2C(=O)NCc2cccnc2)cc1 | -8.16
2 | CCN(CC(=O)Nc1sc2c(c1C(=O)Nc1ccc(Br)cc1)CCC2)C(C)=O | 3.53
3 | CC(C)(C)OC(=O)Nc1cccc(C(=O)N[C@@H](CC2CCCCC2)C(=O)NCC#N)c1 | -3.49
4 | COc1ccc(N(CC(=O)Nc2ccccc2)S(C)(=O)=O)cc1Cl | -1.57
5 | CCCN(CCC)CCCNC(=O)CNC(=O)c1cccs1 | 2.05
6 | Cc1nc2sc3c(c2c2ncnn12)CCCC3 | -3.36
7 | Cc1cccc(NC(=O)c2cccc(Br)c2)c1 | 1.63
8 | COc1cc(NS(=O)(=O)c2ccc(NC(=O)Cc3ccccc3)cc2)nc(OC)n1 | -1.61
9 | S=C1Nc2ccccc2Sc2ccc(Cl)cc21 | 4.44
10 | CC1CCCCC1NC(=O)c1nn(C)c2c1CSc1ccccc1-2 (stereo not shown) | 4.86
11 | Oc1ccc(Br)cc1/C=C/c1nc(O)c2ccccc2n1 | 0.0265
12 | COc1ccc(C(=O)n2nc(-c3ccccc3)nc2NCc2ccccc2Cl)cc1OC | -2.91
13 | COC(=O)C1=CN(C)C=C(C(=O)OC)C1c1ccc(OCc2ccccc2)cc1 | 4.99
14 | CCS(=O)(=O)c1nc(S(=O)(=O)c2ccc(C)cc2)c(NCCc2c[nH]c3ccccc23)s1 | 5.84
15 | CC1C(=O)C(C)C(c2ccccc2)NC1c1ccccc1 (stereo not shown) | 1.54
16 | Cc1ccccc1-c1cc(C(=O)Nc2ccc(C(N)=O)cc2)c2ccccc2n1 | 8.37
17 | COc1ccccc1CNS(=O)(=O)c1csc(C(N)=O)c1 | -0.822
18 | CCOc1ccccc1CNCc1c(C(=O)O)c(C)n(Cc2cccc(C)c2)c1C | -7.36
19 | O=C(NCc1cccc(CNC(=O)C(=O)NCc2ccco2)c1)C(=O)NCc1ccco1 | -0.48
20 | Cn1c(=O)c2c(-c3ccccc3)n(C(C)(C)C)cc2n(C)c1=O | 5.52
21 | N#CCNC(=O)C1(NC(=O)c2cccc(-c3ccccc3)c2)CCCCC1 | -6.46
22 | COc1ccc(C(=O)Nc2cccc(Br)c2)cc1S(=O)(=O)N1CCOCC1 | 2.43
23 | CCN(CC)CC#CC(C)(OC(C)=O)c1ccccc1 (stereo not shown) | 2.23
24 | COc1ccc2nc3sc(C(=O)NCc4ccccn4)cc3cc2c1 | 3.85
25 | Cc1cc(C)c2c3c(sc2n1)C(=O)N(Cc1ccccc1)CN3 | -0.808

Row | SMILES | % Inhibition @ 10 uM [%]
26 | CCCCN(C)Cc1cc(O)ccc1[N+](=O)[O-] | -7.93
27 | COc1cc(-c2nn3c(Cn4nnc5ccccc54)nnc3s2)cc(OC)c1OC | 35.9
28 | O=C(CN1Cc2ccccc2C1=O)NCCc1ccc(Cl)cc1 | 3.62
29 | COc1ccc(C2C3=C(CCCC3=O)N=c3s/c(=C/c4ccc5ccncc5c4)c(=O)n32)cc1 (stereo not shown) | 2.03
30 | COc1ccc(OC)c(-c2cc(C(=O)NCc3ccco3)no2)c1 | -5.09
31 | CCCCCCCCOc1ccc(/C=C(\C#N)c2nc(-c3ccc(C)cc3C)cs2)cc1 | 1.08
32 | COc1ccc(CN2C(=O)c3oc4ccccc4c(=O)c3C2c2cccc(O)c2)cc1 (stereo not shown) | -6.94
33 | CC(C)CNc1nc2c(c(=O)n(Cc3ccccc3)c(=O)n2C)n1Cc1ccccc1 | 0.279
34 | COCCn1c(C)cc(C(=O)CSc2nc(C)cc(C)c2C#N)c1C | -4.6
35 | CC1(C)Cc2c(sc3[nH]c(=S)n(Cc4ccccc4)c(=O)c23)CO1 | 37.7
36 | Cc1ccc(S(=O)(=O)N(Cc2ccc(Cl)cc2)c2ccccc2C(=O)N2CCOCC2)cc1 | 4.88
37 | Cc1c2cnn(CC(=O)NCCc3ccc(Cl)cc3)c(=O)c2c(C)n1Cc1ccccc1 | 5.91
38 | CCC1CCc2c(sc(NC(=O)c3ccccc3C)c2C(N)=O)C1 (stereo not shown) | -3.12
39 | CN(CCCNC(=O)C1CCCN(S(=O)(=O)c2cccc3nsnc23)C1)Cc1ccccc1 (stereo not shown) | -0.499
40 | CCCn1c2ccccc2c2cnn(CC(=O)N(CCCN3CCOCC3)Cc3ccco3)c(=O)c21 | 8.64
41 | CC(C)CCCN1C(=O)NC(=O)/C(=C\c2ccc(Cl)cc2Cl)C1=O | -5.96
42 | COC(=O)C1=C(C)N(CCC2=CCCCC2)C(=O)/C1=C\c1ccccc1Cl | 1.91
43 | CCCNC(=O)/C(=C/c1cn(CC)c2ccccc12)NC(=O)c1ccco1 | -1.74
44 | OCc1cn(Cc2ccccc2Cl)c2ccccc12 | 2.1
45 | CCCCOC(=O)NC(=O)c1coc2ccc(Br)cc2c1=O | -8.76
46 | COc1ccc(C2=C(C)C(NC(C)C34CC5CC(CC(C5)C3)C4)=NS2(=O)=O)cc1 (stereo not shown) | -2.85
47 | COc1cc2c(cc1OC)C(C(C)C)=NC(C)(C)C2 | -0.992
48 | Cc1ccc2onc(CNC(=O)N3CCOCC3)c2c1 | 0.292
49 | O=C(NCCO)c1ccc2snnc2c1 | -3.52
